{
  "source": "paper PMC11354357",
  "about": "“Phase Separation of SARS-CoV-2 Nucleocapsid Protein with TDP-43 Is Dependent on C-Terminus Domains” (International Journal of Molecular Sciences, 2024)",
  "target": "T1, SARS-CoV-2 nucleocapsid protein (SARS-CoV-2)",
  "T1 construct": "SARS-CoV-2 nucleocapsid (N) protein, 419 amino acids, 46 kDa; commercially available recombinant protein (GenScript); the UniProt code is printed for the in silico modelling; Amine-coupled to the SPR chip; also called N protein; NCP",
  "assay": "SPR; Reichert 2SPR SR7500DC; N protein amine-coupled (EDC/NHS) on a carboxymethyl dextran chip (~5000 uRIU); TDP-43 proteins or GST injected as analytes at 35 uL/min, 2 min, 3 min dissociation, 22 °C; 10 mM Hepes pH 7.5, 150 mM NaCl, 0.1% Tween-20; steady-state analysis",
  "details": "both partners purified",
  "data": [
    {"binder": "N-terminus TDP-43 (TDP-43 […]) (domain or fragment, the UniProt code is printed for the in silico modelling; also called N-terminus domain containing both the RRM1 and RRM2 domains; source: purified by the authors' lab as previously published [94]) not shown", "values": [
      {"measurement": "Kd", "result": "> 167", "unit": "µM"}
    ]}
  ]
}
